We go through 50 sequences from the supplement of paper PMC12645437, “Orthogonal IMiD-Degron Pairs Induce Selective Protein Degradation in Cells” (ACS Chemical Biology, 2025).

The list shows a part of the results.
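Further: jurkat cells carrying a lentiviral library of mutant zinc finger degrons fused to EGFP plus mCherry, mCherry+ cells FACS sorted, degron abundance counted by next-generation sequencing.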

The target of this assay is no compound (DMSO). Description: log2 fold change of degron read counts, EGFP-low vs EGFP+ sorted cells; higher = lower degron-EGFP level without compound (poor expression or instability). As to conditions: compound: DMSO control; 18 h.
As to FLCEQCGAWFTQKGNLLRHIKL, the “log2 fold change of degron read counts” value is -0.224.

As for FFCNQCGAWFTQKGNLLRHIKL, the “log2 fold change of degron read counts” value came to 1.23.

In the case of FDCPQCGAFFTQKGNLLRHIKL, the “log2 fold change of degron read counts” value amounted to 0.215.

FMCDVCGANFTQKGNLLRHIKL: the “log2 fold change of degron read counts” value is -0.586.

In the case of FTCNVCGAWFTQKGNLLRHIKL, the “log2 fold change of degron read counts” value is 0.0965.

In the case of FICEICGANFTQKGNLLRHIKL, the “log2 fold change of degron read counts” value was -1.89.

For the sequence FRCNQCGATFTQKGNLLRHIKL, the “log2 fold change of degron read counts” value is -0.914.

Regarding FFCPVCGADFTQKGNLLRHIKL, the “log2 fold change of degron read counts” value was -0.0469.

Turning to LWCEICGFHCTQKGNLLRHIKL, the “log2 fold change of degron read counts” value worked out at 1.77.

As to LNCEICGFYCTQKGNLLRHIKL, the “log2 fold change of degron read counts” value is 1.11.

Consider FGCPICGRMFTQKGNLLRHIKL, for which the “log2 fold change of degron read counts” value is -0.0123.

FDCEICGHMFTQKGNLLRHIKL: the “log2 fold change of degron read counts” value was found to be 0.309.

In the case of FKCPICGRDFTQKGNLLRHIKL, the “log2 fold change of degron read counts” value is -0.583.

In the case of LECPICGFFCTQKGNLLRHIKL, the “log2 fold change of degron read counts” value came to 1.07.

On to FYCDICGAQFTQKGNLLRHIKL, for which the “log2 fold change of degron read counts” value is -1.35.

On to FQCDVCGANFTQKGNLLRHIKL, for which the “log2 fold change of degron read counts” value was -1.66.

With FECNICGAFFTQKGNLLRHIKL, the “log2 fold change of degron read counts” value was -2.02.

As for FICEICGRKFTQKGNLLRHIKL, the “log2 fold change of degron read counts” value was -1.61.

Turning to FHCNQCGHHFTQKGNLLRHIKL, the “log2 fold change of degron read counts” value came out at 0.927.

Turning to FMCNQCGAWFTQKGNLLRHIKL, the “log2 fold change of degron read counts” value was determined as 0.434.

On to FTCEICGHMFTQKGNLLRHIKL, for which the “log2 fold change of degron read counts” value was -1.48.

As to FKCEICGRNFTQKGNLLRHIKL, the “log2 fold change of degron read counts” value is -2.38.

Take FICPQCGATFTQKGNLLRHIKL: the “log2 fold change of degron read counts” value was -0.838.

Turning to FWCNVCGAWFTQKGNLLRHIKL, the “log2 fold change of degron read counts” value is 1.69.

With FMCNQCGRLFTQKGNLLRHIKL, the “log2 fold change of degron read counts” value amounted to 0.337.

Regarding FHCEICGRPFTQKGNLLRHIKL, the “log2 fold change of degron read counts” value was -1.96.

As to FWCDICGAQFTQKGNLLRHIKL, the “log2 fold change of degron read counts” value is -0.104.

On to FGCNQCGRTFTQKGNLLRHIKL, for which the “log2 fold change of degron read counts” value stood at 0.368.

Take FMCEICGRCFTQKGNLLRHIKL: the “log2 fold change of degron read counts” value is -0.433.

With FICPVCGAFFTQKGNLLRHIKL, the “log2 fold change of degron read counts” value was found to be 0.556.

Take FHCEQCGAFFTQKGNLLRHIKL: the “log2 fold change of degron read counts” value was -1.12.

With FDCEVCGANFTQKGNLLRHIKL, the “log2 fold change of degron read counts” value was -0.935.

With FECPICGAKFTQKGNLLRHIKL, the “log2 fold change of degron read counts” value is -1.11.

Take FTCNQCGHLFTQKGNLLRHIKL: the “log2 fold change of degron read counts” value is -0.0508.

As to FSCEVCGAGFTQKGNLLRHIKL, the “log2 fold change of degron read counts” value was -1.02.

Turning to FECPQCGASFTQKGNLLRHIKL, the “log2 fold change of degron read counts” value was -1.49.

Take FGCPVCGAIFTQKGNLLRHIKL: the “log2 fold change of degron read counts” value was found to be 0.491.

Take FFCDQCGAAFTQKGNLLRHIKL: the “log2 fold change of degron read counts” value is -1.75.

For FVCDVCGAMFTQKGNLLRHIKL, the “log2 fold change of degron read counts” value was -1.27.

As for FNCPQCGATFTQKGNLLRHIKL, the “log2 fold change of degron read counts” value is -1.17.

Consider LHCPICGFCCTQKGNLLRHIKL, for which the “log2 fold change of degron read counts” value is 1.38.

For LNCEICGFWCTQKGNLLRHIKL, the “log2 fold change of degron read counts” value is 1.74.

In the case of FICDICGAKFTQKGNLLRHIKL, the “log2 fold change of degron read counts” value was -1.33.

As for FLCDVCGAQFTQKGNLLRHIKL, the “log2 fold change of degron read counts” value was -1.75.

In the case of FQCPICGAKFTQKGNLLRHIKL, the “log2 fold change of degron read counts” value is -0.164.

Turning to FTCEICGRWFTQKGNLLRHIKL, the “log2 fold change of degron read counts” value was -0.776.

Consider FQCNQCGHDFTQKGNLLRHIKL, for which the “log2 fold change of degron read counts” value was -1.42.

With FGCNQCGHMFTQKGNLLRHIKL, the “log2 fold change of degron read counts” value came to 0.702.

On to FACNQCGANFTQKGNLLRHIKL, for which the “log2 fold change of degron read counts” value is -1.03.

As to FYCDQCGACFTQKGNLLRHIKL, the “log2 fold change of degron read counts” value is -0.526.
